In the supplement of paper PMC3334620:
In all, about 33,000 sequences were measured (“E-score (-0.5 to 0.5)”: median about -0.053, highest 2% from about 0.37 on). The list shows a part of the results.

target: Hap1 (UniProt P0CE41); assay: PBM E-score (8-mer binding enrichment) (E-score (-0.5 to 0.5)); higher = stronger / more preferred TF binding; most listed sequences are background and not binding sites; settings: protein concentration: 200 nM; construct: GST-DNA-binding domain
How it was run: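 E-scores (a modified Wilcoxon-Mann-Whitney statistic) were assigned by the Universal PBM Analysis Suite to every ungapped eight-base word pooled with its reverse complement. The input came from universal all-10-mer Agilent arrays made double-stranded by primer extension and probed with GST-tagged yeast transcription factors at about 100-200 nM. Fluorescent anti-GST detected bound protein, and masliner normalised the scans.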

UniProt P0CE41, sequence (P0CE41 whole entry, the tested form may be a part): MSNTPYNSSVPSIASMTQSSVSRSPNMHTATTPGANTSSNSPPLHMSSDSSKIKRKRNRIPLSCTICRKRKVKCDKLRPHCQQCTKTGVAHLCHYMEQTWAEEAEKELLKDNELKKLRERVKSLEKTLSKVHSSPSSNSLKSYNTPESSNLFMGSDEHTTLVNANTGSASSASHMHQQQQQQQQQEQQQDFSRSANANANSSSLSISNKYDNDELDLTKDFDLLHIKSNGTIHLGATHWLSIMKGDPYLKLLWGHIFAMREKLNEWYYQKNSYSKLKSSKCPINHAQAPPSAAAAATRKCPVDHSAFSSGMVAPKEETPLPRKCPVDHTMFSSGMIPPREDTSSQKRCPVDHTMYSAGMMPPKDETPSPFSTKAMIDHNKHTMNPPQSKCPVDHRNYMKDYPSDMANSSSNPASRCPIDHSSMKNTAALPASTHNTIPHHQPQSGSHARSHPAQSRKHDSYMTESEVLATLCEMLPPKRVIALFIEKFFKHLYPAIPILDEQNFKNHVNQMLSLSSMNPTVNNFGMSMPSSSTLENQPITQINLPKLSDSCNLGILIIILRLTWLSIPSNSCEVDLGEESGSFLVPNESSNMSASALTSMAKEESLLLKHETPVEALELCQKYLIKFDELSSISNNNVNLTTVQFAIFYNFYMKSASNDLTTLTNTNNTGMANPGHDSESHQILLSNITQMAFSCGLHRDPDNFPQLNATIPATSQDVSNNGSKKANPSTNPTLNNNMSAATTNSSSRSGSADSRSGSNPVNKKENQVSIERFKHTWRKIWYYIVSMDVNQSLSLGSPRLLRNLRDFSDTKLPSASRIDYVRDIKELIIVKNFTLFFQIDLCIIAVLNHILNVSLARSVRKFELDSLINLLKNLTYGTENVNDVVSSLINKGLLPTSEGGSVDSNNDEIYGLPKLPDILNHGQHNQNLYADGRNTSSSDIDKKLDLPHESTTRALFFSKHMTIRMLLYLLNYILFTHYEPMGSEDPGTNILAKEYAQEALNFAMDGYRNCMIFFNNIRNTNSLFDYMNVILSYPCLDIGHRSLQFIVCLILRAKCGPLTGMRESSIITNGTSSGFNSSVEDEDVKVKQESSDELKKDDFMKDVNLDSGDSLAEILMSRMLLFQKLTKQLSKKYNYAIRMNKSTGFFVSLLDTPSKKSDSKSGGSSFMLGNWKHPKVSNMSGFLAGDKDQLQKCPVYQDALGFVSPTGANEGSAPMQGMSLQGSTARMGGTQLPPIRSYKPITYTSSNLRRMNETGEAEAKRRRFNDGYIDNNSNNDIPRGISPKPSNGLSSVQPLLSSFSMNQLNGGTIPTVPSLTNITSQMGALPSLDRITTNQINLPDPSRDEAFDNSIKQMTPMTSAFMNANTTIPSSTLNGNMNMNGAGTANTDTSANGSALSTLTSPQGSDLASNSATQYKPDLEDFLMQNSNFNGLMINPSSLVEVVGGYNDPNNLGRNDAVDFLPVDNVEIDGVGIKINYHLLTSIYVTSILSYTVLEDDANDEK

| Sequence | PBM E-score |
| --- | --- |
| CCAAGGGG | -0.24 |
| GATAGTGA | -0.0353 |
| GAGCCATA | -0.127 |
| AAACCATA | -0.069 |
| AAGAGCAC | -0.227 |
| CCACGCGA | -0.0313 |
| AATAACGT | 0.0765 |
| CGGGAGTC | 0.0637 |
| CGTTAACA | 0.00755 |
| ATAACAGG | -0.159 |
| AACACTTA | 0.00555 |
| CATGGATA | -0.122 |
| GCGAAAAC | -0.0632 |
| CGAGTTGC | -0.053 |
| ATCGACCG | 0.265 |
| GCCTCACA | -0.263 |
| CGAAATCA | 0.167 |
| CGAGAAGA | 0.0377 |
| ATCGCGAA | 0.216 |
| CTGGGCGA | -0.0308 |
| AAGGCGAT | -0.0941 |
| TCAGTGGA | -0.0926 |

| Sequence | PBM E-score |
| --- | --- |
| CCAGCCGG | 0.275 |
| ACAAACGA | -0.145 |
| AGTGATAG | -0.308 |
| TGCACGAA | -0.299 |
| TCAAAAAA | 0.0121 |
| ACTGTTAT | -0.041 |
| AAGTAACT | 0.0725 |
| ATCTGCAT | -0.0399 |
| CAGAAGTA | -0.272 |
| CTCGGCTC | 0.226 |
| CATGGGGC | -0.155 |
| GCAGCCAA | -0.178 |
| ATGAGTGA | -0.187 |
| TCAACCCA | -0.0841 |
| AGGTAAGC | -0.215 |
| ATGTGAAG | -0.192 |
| AATTGAAA | -0.293 |
| TGTAGTAA | 0.0446 |
| CATCATTC | -0.00448 |
| GATAATCA | -0.00414 |
| CACTGAGG | -0.0951 |
| CCAGAATC | -0.12 |

| Sequence | PBM E-score |
| --- | --- |
| GCTCTAAC | 0.0397 |
| ATTCTGAC | -0.0753 |
| CCACCCCG | 0.2 |
| CCTCAAAC | 0.00338 |
| GAAGAGGA | -0.136 |
| ACTCTTCT | -0.193 |
| AGGTCCGA | 0.404 |
| CTAGCTCC | 0.196 |
| ATTCTAAG | -0.0213 |
| AATGTCTC | -0.0165 |
| AACAATGA | -0.0687 |
| CCCTCCCC | 0.12 |
| AGAGTAAT | 0.076 |
| TCATTGCA | -0.247 |
| TCTCAACA | -0.232 |
| GAACTCGC | -0.0187 |
| CCCGCGCC | 0.189 |
| AATTAGCG | 0.206 |
| AGAACGTA | -0.108 |
| ACTTCCAG | -0.131 |
| AGTAGCCG | 0.209 |
| CGCCCAAC | -0.0574 |

| Sequence | PBM E-score |
| --- | --- |
| CAATGCGA | -0.13 |
| ACCGCTGG | -0.0402 |
| AGGGACAG | -0.274 |
| TTACCTAA | -0.109 |
| GAATATTA | 0.0958 |
| GGGCGTAC | 0.2 |
| ACCATTTA | -0.117 |
| CTGCGGTA | 0.191 |
| CCAATGCG | -0.169 |
| GTTGAAGA | -0.214 |
| CAGACGTA | -0.0717 |
| GACCAAGA | -0.0391 |
| TTCACAAA | -0.051 |
| CAGGGATA | -0.218 |
| GCTCATCC | 0.0138 |
| CCCAGCTA | -0.276 |
| AAACCGCC | 0.148 |
| CGCACGTA | -0.0134 |
| ACGCCCCC | 0.0965 |
| GAGATTGA | -0.113 |
| CATTCCCA | -0.105 |
| ATGCCGCA | 0.113 |

| Sequence | PBM E-score |
| --- | --- |
| ACCTGGAA | -0.187 |
| AGACGACA | -0.101 |
| ACCATAAG | -0.188 |
| ATATCTGA | -0.126 |
| GAGGCAAC | 0.00569 |
| AAGGGATG | -0.238 |
| CGCTGCTA | 0.149 |
| TCCACCGA | 0.227 |
| ACGTCCAA | -0.0855 |
| GTTGGTAA | -0.214 |
| CGTGGAGA | 0.0328 |
| ACGATTCG | 0.133 |
| GGCTTAAC | 0.067 |
| ATGAGCGG | 0.0871 |
| CCCAGGTA | -0.25 |
| CCCCTCGA | -0.119 |
| CAATGGGC | -0.178 |
| GCTTATAC | -0.0126 |
| AGAGAGTA | -0.0569 |
| TCTGGAAA | -0.139 |
| AGTGCCTC | -0.167 |
